Test results: the antibiotic and cytotoxicity screens of Wong et al. (2023)
This is one part of the list.

Each compound was assayed on HSkMC (human skeletal muscle cells) (assay: cytotoxicity call (relative viability < 0.9)). Settings: 10 µM.

Structure (SMILES) | cytotoxicity call
NCCO.NCCO.O[AsH]O[AsH]O (stereo unspecified) | inactive
Cc1ccc(OC(=O)N(C)C[C@H]2OCc3ccccc3-c3c(n(C)c4ccccc34)C(=O)N([C@H](C)CO)C[C@@H]2C)cc1 | active
NC1(c2ccc(Cl)cc2)CC1 | inactive
CC1=C(O)C(=O)C=C2C1=CC=C1C2(C)CCC2(C)C3CC(C)(C(=O)O)CCC3(C)CCC12C (stereo unspecified) | active
OCCN(CCO)CCO | inactive
Cc1c(N)nc([C@H](CC(N)=O)NC[C@@H](N)C(N)=O)nc1C(=O)N[C@H](C(=O)N[C@@H](C)[C@H](O)[C@@H](C)C(=O)N[C@@H](C(=O)NCCc1nc(-c2nc(C(=O)NCCC[S+](C)C)cs2)cs1)[C@@H](C)O)[C@@H](O[C@H]1O[C@H](CO)[C@H](O)[C@@H](O)[C@H]1O[C@H]1O[C@H](CO)[C@@H](O)[C@H](OC(N)=O)[C@@H]1O)c1c[nH]cn1 | inactive
CNC(Cc1c[nH]c2ccccc12)C(=O)O (stereo unspecified) | inactive
O=C1CCN(C(=O)C2CCC2)CC1 | inactive
C1COC2(CCNCC2)OC1 | inactive
CNc1ccc2oc(C[C@H]3O[C@@]4(CC[C@H]3C)O[C@H]([C@H](C)C(=O)c3ccc[nH]3)[C@H](C)C[C@H]4C)nc2c1C(=O)O | active
COC(=O)[C@]1(Cc2ccccc2CN=[N+]=[N-])N=C(c2ccc(OCCCO)cc2)O[C@@H]1c1ccccc1N=[N+]=[N-] | inactive
C[C@@H](N)Cc1ccco1 | inactive
CC(C)Oc1ccc(CCN)cc1 | inactive
C[C@H]1C(=O)O[C@@H]2CCN3CC=C(COC(=O)[C@](C)(O)[C@]1(C)O)[C@H]23 | inactive
C=C1[C@H]2CC[C@H]3[C@]4(C)C[C@H](O[C@H]5O[C@@H](CO)[C@@H](OS(=O)(=O)O)[C@H](OS(=O)(=O)O)[C@H]5OC(=O)CC(C)C)C[C@@H](C(=O)O)[C@H]4CC[C@]3(C2)[C@H]1O | inactive
[N-]=[N+]=NCc1ccccc1C[C@]1(C(=O)NCCN2CCOCC2)N=C(c2ccc(OCCCO)cc2)O[C@H]1c1ccccc1N=[N+]=[N-] | inactive
COCCCNC(=O)[C@@]1(Cc2ccccc2CN=[N+]=[N-])N=C(c2ccc(OCCCO)cc2)O[C@H]1c1ccccc1CN=[N+]=[N-] | inactive
CCC(CC)C(=O)N[C@@H]1[C@@H]2CNC[C@@H]21 | inactive
C=CCc1cc(OC)c2c(c1OC)OCO2 | inactive

Structure (SMILES) | cytotoxicity call
CN1[C@@H]2CC[C@@H]1C[C@H](O)C2 (stereo partly specified) | inactive
O=[As]O[As]=O (stereo unspecified) | inactive
CC1(C)S[C@@H]2[C@H](N)C(=O)N2[C@H]1C(=O)O | inactive
Cc1ccnc(N2CCNCC2)c1 | inactive
C[N+](C)(C)CC#CCN1CCCC1=O | inactive
CC1C=CC=CCCC=CC=CC=CC=CC(OC2OC(C)C(O)C(N)C2O)CC2OC(O)(CC(O)C(O)CCC(O)CC(O)CC(O)CC(=O)OC(C)C(C)C1O)CC(O)C2C(=O)O (stereo unspecified) | inactive
S=C1NCCN1 | inactive
Oc1cc(Cl)ccc1Oc1ccc(Cl)cc1Cl | inactive
Cc1nccc2c1[nH]c1ccccc12 | inactive
CN1C(=O)/C(=C/c2cn(CC(=O)N3CCOCC3)c3ccccc23)C(=O)NC1=S | inactive
CC(C)C12OC1C1OC13C1(C)CCC4=C(COC4=O)C1CC1OC13C2O (stereo unspecified) | inactive
O/N=C1\CN2CCC1CC2 | inactive
C[N+]1(C)CCCC(OC(=O)C(O)(c2ccccc2)c2ccccc2)C1.[Br-] (stereo unspecified) | inactive
NC(=O)CN1CC[C@@H](NC(=O)[C@@H]2CCCN2)C1=O | inactive
C[C@@H]1CN([C@@H](C)CO)C(=O)CCCn2nncc2CO[C@@H]1CN(C)C(=O)Oc1ccc2ccccc2c1 | inactive
O=C(O)CN1C[C@@H]2C(NC(=O)c3ccno3)[C@H]2C1 (stereo partly specified) | inactive
CO[C@H]1[C@@H](O)C[C@@H](O[C@H]2[C@@H](O)C[C@@H](O[C@H]3[C@@H](O)C[C@@H](O[C@H]4CC[C@@]5(C)[C@@H](CC[C@H]6[C@@H]5C[C@@H](O)[C@@]5(C)[C@H](C7=CC(=O)OC7)CC[C@@]65O)C4)O[C@@H]3C)O[C@@H]2C)O[C@@H]1C | active
O=c1[n-]c(=O)n(Cl)c(=O)n1Cl.[Na+] | inactive
Cc1[nH]c2ccccc2c1CN(C)C | inactive

Each compound was assayed on HepG2 (assay: cytotoxicity call (relative viability < 0.9)). Settings: 10 µM.

Structure (SMILES) | cytotoxicity call
NCCO.NCCO.O[AsH]O[AsH]O (stereo unspecified) | active
Cc1ccc(OC(=O)N(C)C[C@H]2OCc3ccccc3-c3c(n(C)c4ccccc34)C(=O)N([C@H](C)CO)C[C@@H]2C)cc1 | active
NC1(c2ccc(Cl)cc2)CC1 | inactive
CC1=C(O)C(=O)C=C2C1=CC=C1C2(C)CCC2(C)C3CC(C)(C(=O)O)CCC3(C)CCC12C (stereo unspecified) | active
OCCN(CCO)CCO | inactive
Cc1c(N)nc([C@H](CC(N)=O)NC[C@@H](N)C(N)=O)nc1C(=O)N[C@H](C(=O)N[C@@H](C)[C@H](O)[C@@H](C)C(=O)N[C@@H](C(=O)NCCc1nc(-c2nc(C(=O)NCCC[S+](C)C)cs2)cs1)[C@@H](C)O)[C@@H](O[C@H]1O[C@H](CO)[C@H](O)[C@@H](O)[C@H]1O[C@H]1O[C@H](CO)[C@@H](O)[C@H](OC(N)=O)[C@@H]1O)c1c[nH]cn1 | inactive
CNC(Cc1c[nH]c2ccccc12)C(=O)O (stereo unspecified) | inactive
O=C1CCN(C(=O)C2CCC2)CC1 | inactive
C1COC2(CCNCC2)OC1 | inactive
CNc1ccc2oc(C[C@H]3O[C@@]4(CC[C@H]3C)O[C@H]([C@H](C)C(=O)c3ccc[nH]3)[C@H](C)C[C@H]4C)nc2c1C(=O)O | active
COC(=O)[C@]1(Cc2ccccc2CN=[N+]=[N-])N=C(c2ccc(OCCCO)cc2)O[C@@H]1c1ccccc1N=[N+]=[N-] | active
C[C@@H](N)Cc1ccco1 | inactive
CC(C)Oc1ccc(CCN)cc1 | inactive
C[C@H]1C(=O)O[C@@H]2CCN3CC=C(COC(=O)[C@](C)(O)[C@]1(C)O)[C@H]23 | inactive
C=C1[C@H]2CC[C@H]3[C@]4(C)C[C@H](O[C@H]5O[C@@H](CO)[C@@H](OS(=O)(=O)O)[C@H](OS(=O)(=O)O)[C@H]5OC(=O)CC(C)C)C[C@@H](C(=O)O)[C@H]4CC[C@]3(C2)[C@H]1O | inactive
[N-]=[N+]=NCc1ccccc1C[C@]1(C(=O)NCCN2CCOCC2)N=C(c2ccc(OCCCO)cc2)O[C@H]1c1ccccc1N=[N+]=[N-] | active
COCCCNC(=O)[C@@]1(Cc2ccccc2CN=[N+]=[N-])N=C(c2ccc(OCCCO)cc2)O[C@H]1c1ccccc1CN=[N+]=[N-] | active
CCC(CC)C(=O)N[C@@H]1[C@@H]2CNC[C@@H]21 | inactive
C=CCc1cc(OC)c2c(c1OC)OCO2 | inactive

Structure (SMILES) | cytotoxicity call
CN1[C@@H]2CC[C@@H]1C[C@H](O)C2 (stereo partly specified) | inactive
O=[As]O[As]=O (stereo unspecified) | active
CC1(C)S[C@@H]2[C@H](N)C(=O)N2[C@H]1C(=O)O | inactive
Cc1ccnc(N2CCNCC2)c1 | inactive
C[N+](C)(C)CC#CCN1CCCC1=O | inactive
CC1C=CC=CCCC=CC=CC=CC=CC(OC2OC(C)C(O)C(N)C2O)CC2OC(O)(CC(O)C(O)CCC(O)CC(O)CC(O)CC(=O)OC(C)C(C)C1O)CC(O)C2C(=O)O (stereo unspecified) | inactive
S=C1NCCN1 | inactive
Oc1cc(Cl)ccc1Oc1ccc(Cl)cc1Cl | inactive
Cc1nccc2c1[nH]c1ccccc12 | active
CN1C(=O)/C(=C/c2cn(CC(=O)N3CCOCC3)c3ccccc23)C(=O)NC1=S | inactive
CC(C)C12OC1C1OC13C1(C)CCC4=C(COC4=O)C1CC1OC13C2O (stereo unspecified) | active
O/N=C1\CN2CCC1CC2 | inactive
C[N+]1(C)CCCC(OC(=O)C(O)(c2ccccc2)c2ccccc2)C1.[Br-] (stereo unspecified) | inactive
NC(=O)CN1CC[C@@H](NC(=O)[C@@H]2CCCN2)C1=O | inactive
C[C@@H]1CN([C@@H](C)CO)C(=O)CCCn2nncc2CO[C@@H]1CN(C)C(=O)Oc1ccc2ccccc2c1 | inactive
O=C(O)CN1C[C@@H]2C(NC(=O)c3ccno3)[C@H]2C1 (stereo partly specified) | inactive
CO[C@H]1[C@@H](O)C[C@@H](O[C@H]2[C@@H](O)C[C@@H](O[C@H]3[C@@H](O)C[C@@H](O[C@H]4CC[C@@]5(C)[C@@H](CC[C@H]6[C@@H]5C[C@@H](O)[C@@]5(C)[C@H](C7=CC(=O)OC7)CC[C@@]65O)C4)O[C@@H]3C)O[C@@H]2C)O[C@@H]1C | active
O=c1[n-]c(=O)n(Cl)c(=O)n1Cl.[Na+] | inactive
Cc1[nH]c2ccccc2c1CN(C)C | inactive
